Test results: article PMC7324525
Results are given in words; binding and its absence hold for the method and conditions named. For some of these results: Binding seen in cells or lysates may run through a third protein. Some entries that bind do so weakly or less than the wild type. For some of these results: Sequences can lack the tags named with a protein.

Amino acid sequences for entries named in this document (tags omitted). A change or cut given only in a name is not applied to a line headed by its entry. Residues count along the entry.
UniProt Q61091, residues 28-685: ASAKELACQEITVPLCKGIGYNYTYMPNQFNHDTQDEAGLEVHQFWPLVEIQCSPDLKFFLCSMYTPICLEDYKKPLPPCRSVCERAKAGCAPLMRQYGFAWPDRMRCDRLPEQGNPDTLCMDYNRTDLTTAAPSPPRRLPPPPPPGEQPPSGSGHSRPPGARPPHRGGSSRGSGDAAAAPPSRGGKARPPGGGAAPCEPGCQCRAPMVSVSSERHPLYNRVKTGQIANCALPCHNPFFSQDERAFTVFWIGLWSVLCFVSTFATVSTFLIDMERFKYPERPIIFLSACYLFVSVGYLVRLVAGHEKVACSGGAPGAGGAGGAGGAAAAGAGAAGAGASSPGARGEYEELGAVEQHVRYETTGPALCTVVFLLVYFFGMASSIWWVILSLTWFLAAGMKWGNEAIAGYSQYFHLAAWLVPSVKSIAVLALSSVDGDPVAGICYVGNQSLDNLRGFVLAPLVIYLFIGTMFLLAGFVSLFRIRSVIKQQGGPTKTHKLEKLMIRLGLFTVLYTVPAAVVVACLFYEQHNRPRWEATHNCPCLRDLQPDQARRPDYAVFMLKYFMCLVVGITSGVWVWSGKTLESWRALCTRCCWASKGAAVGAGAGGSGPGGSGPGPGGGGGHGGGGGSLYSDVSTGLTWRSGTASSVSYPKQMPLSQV
UniProt Q9EQD0, residues 27-585: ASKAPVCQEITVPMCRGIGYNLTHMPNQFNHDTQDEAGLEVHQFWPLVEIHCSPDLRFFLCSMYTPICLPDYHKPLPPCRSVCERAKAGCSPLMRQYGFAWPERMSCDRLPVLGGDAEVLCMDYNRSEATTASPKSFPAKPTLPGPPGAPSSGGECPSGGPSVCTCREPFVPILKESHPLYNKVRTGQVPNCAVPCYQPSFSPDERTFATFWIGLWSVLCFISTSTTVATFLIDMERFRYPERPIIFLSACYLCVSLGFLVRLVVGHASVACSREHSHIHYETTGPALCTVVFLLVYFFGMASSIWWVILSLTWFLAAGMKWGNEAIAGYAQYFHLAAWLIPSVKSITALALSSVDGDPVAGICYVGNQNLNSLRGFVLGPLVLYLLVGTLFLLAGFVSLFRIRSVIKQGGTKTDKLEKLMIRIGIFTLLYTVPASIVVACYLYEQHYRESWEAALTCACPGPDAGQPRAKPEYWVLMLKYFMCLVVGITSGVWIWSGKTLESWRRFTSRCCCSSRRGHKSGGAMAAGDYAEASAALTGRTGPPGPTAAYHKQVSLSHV
UniProt Q9ULV1, residues 37-537: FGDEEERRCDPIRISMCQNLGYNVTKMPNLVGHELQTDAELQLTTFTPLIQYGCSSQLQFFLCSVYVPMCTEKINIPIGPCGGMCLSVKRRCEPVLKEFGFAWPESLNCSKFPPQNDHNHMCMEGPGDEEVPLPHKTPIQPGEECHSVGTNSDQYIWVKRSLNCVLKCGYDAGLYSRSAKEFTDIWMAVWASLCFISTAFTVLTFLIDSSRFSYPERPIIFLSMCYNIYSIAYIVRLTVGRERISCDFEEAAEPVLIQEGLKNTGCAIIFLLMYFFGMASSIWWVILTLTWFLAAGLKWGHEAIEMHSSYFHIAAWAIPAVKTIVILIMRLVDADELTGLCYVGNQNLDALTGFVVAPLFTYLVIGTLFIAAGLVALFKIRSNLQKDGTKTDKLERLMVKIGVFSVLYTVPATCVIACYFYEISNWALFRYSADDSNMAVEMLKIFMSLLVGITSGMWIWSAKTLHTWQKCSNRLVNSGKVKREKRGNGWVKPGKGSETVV
UniProt P56726, residues 33-793: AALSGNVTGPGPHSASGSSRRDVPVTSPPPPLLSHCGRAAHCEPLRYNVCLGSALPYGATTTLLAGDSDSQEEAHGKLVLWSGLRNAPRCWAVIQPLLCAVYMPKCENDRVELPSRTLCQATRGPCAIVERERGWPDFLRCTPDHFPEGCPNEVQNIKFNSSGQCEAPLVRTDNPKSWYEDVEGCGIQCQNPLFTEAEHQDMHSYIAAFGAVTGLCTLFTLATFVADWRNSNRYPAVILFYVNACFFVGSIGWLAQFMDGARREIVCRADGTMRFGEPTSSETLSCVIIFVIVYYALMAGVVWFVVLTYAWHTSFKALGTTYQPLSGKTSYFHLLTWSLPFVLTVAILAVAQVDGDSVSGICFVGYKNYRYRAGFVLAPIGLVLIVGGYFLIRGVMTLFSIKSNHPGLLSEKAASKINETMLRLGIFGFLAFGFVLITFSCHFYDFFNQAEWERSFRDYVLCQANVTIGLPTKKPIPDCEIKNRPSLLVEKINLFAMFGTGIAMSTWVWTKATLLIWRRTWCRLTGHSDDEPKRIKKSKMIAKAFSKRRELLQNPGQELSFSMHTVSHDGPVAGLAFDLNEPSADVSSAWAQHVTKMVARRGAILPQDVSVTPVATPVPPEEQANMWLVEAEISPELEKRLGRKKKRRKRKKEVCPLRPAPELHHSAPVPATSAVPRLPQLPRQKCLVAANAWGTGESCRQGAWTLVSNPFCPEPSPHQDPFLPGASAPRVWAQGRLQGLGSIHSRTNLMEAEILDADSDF
UniProt P27467, residues 19-352: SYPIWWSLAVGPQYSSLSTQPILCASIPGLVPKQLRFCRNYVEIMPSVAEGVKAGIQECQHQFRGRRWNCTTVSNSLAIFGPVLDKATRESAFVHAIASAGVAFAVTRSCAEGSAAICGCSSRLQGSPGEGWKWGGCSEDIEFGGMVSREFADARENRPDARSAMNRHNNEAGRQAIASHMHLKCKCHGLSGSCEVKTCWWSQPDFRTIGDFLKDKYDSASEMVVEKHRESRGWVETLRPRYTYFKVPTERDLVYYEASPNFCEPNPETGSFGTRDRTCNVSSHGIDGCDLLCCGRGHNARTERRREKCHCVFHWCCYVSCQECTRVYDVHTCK

Legend:
[1] = molecular target: T1, mouse FZD4-mCherry (stable NCI-H1703 cell line) (mouse) (UniProt Q61088); assay: confocal laser scanning microscopy of fluorescent ligand on live cells; living NCI-H1703 cells with stable mouse FZD-mCherry, incubated 3 h with eGFP-Wnt-3a L-cell conditioned medium; membrane eGFP against mCherry fluorescence, relative binding approximated by visual inspection
T1 sequence: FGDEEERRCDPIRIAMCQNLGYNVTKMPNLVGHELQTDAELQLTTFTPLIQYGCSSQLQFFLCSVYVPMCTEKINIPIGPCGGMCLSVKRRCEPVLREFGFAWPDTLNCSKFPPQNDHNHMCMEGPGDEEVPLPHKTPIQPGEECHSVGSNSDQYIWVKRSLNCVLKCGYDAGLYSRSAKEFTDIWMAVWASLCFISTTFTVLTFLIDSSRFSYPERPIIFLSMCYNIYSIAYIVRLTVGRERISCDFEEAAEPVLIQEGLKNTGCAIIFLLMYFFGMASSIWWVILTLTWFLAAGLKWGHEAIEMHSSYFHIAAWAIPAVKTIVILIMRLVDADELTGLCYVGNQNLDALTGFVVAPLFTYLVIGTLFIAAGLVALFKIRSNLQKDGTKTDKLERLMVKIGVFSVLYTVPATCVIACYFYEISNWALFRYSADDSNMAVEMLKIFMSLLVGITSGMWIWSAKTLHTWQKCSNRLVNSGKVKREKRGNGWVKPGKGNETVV

[2] = molecular target: T2, mouse FZD9-mCherry (stable NCI-H1703 cell line) (mouse) (UniProt Q9R216); assay: as above
T2 sequence: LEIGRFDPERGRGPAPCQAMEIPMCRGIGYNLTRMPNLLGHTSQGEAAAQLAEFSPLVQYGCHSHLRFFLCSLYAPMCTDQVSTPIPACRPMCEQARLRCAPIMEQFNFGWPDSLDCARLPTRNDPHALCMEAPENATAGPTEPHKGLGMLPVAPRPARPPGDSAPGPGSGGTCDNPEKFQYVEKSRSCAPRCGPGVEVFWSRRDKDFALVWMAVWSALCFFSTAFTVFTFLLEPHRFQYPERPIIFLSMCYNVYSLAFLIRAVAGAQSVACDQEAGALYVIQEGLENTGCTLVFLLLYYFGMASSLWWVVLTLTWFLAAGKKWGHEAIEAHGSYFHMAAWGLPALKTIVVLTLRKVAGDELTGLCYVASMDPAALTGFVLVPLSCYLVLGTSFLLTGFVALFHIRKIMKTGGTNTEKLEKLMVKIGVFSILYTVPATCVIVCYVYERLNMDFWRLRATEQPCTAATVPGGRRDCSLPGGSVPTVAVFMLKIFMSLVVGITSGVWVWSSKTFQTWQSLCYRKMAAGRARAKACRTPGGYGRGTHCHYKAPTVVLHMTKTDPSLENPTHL

[3] = molecular target: mouse FZD8-mCherry (stable NCI-H1703 cell line) (mouse) (UniProt Q61091); assay: as above
[4] = molecular target: mouse FZD8-mCherry (transient, ΔFZD1–10 GFP-free HEK293 cells) (mouse) (UniProt Q61091); assay: confocal laser scanning microscopy of fluorescent ligand on live cells; living ΔFZD1–10 GFP-free HEK293 cells transiently transfected with mouse FZD-mCherry, incubated 1 h with eGFP-Wnt-3a L-cell conditioned medium; relative binding approximated by visual inspection
[5] = molecular target: mouse FZD5-mCherry (transient, ΔFZD1–10 GFP-free HEK293 cells) (mouse) (UniProt Q9EQD0); assay: as above
[6] = molecular target: T3, mouse FZD9-mCherry (transient, ΔFZD1–10 GFP-free HEK293 cells) (mouse) (UniProt Q9R216); assay: as above
T3 sequence: T2 sequence

[7] = molecular target: T4, mouse FZD4-mCherry (transient, ΔFZD1–10 GFP-free HEK293 cells) (mouse) (UniProt Q61088); assay: as above
T4 sequence: T1 sequence

[8] = molecular target: Nluc-FZD4 (human) (UniProt Q9ULV1); assay: FRET or BRET; NanoBRET association kinetics; L-cell-derived eGFP-Wnt-3a conditioned medium (serum-containing) added to living ΔFZD1–10 HEK293 cells expressing Nluc-FZD4; 37 °C, 180 min
[9] = molecular target: T5, Nluc-FZD6 (UniProt O60353); assay: FRET or BRET; NanoBRET; eGFP-Wnt-3a conditioned medium against control medium on living ΔFZD1–10 HEK293 cells expressing Nluc-FZD6 or Nluc-SMO (Fig. S4c); preparation of the medium not stated
T5 sequence: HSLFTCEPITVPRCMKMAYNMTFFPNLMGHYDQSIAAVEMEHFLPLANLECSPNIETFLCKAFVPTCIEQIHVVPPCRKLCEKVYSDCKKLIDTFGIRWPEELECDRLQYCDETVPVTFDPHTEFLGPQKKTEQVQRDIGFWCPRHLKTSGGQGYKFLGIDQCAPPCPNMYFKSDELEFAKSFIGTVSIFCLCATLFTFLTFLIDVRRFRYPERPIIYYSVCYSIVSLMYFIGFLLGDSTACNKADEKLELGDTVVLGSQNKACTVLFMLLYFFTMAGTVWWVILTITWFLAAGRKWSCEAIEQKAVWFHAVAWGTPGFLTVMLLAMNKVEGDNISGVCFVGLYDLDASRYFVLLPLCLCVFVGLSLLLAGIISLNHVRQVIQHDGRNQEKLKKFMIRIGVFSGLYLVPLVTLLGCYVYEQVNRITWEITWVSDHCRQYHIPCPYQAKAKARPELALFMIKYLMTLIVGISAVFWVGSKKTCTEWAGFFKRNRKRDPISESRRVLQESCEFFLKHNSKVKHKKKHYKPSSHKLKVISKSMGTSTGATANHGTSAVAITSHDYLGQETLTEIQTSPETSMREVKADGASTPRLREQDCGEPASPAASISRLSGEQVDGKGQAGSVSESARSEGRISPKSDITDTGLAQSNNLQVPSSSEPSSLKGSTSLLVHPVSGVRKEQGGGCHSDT

[10] = molecular target: Nluc-SMO (coding for mouse Smoothened) (mouse) (UniProt P56726); assay: as above

binding [1]	binding [2]	binding [3]	binding [4]	binding [5]	binding [6]	binding [7]	binding [8]	binding [9]	binding [10]	Substance
binds	binds weakly	binds	binds	binds	binds weakly	binds	binds			eGFP-Wnt-3a (conditioned medium from the stable L-cell line) (from UniProt P27467 19-352) (ligand)
								no binding	no binding	eGFP-Wnt-3a (conditioned medium, preparation not stated) (from UniProt P27467 19-352) (ligand)
